“Also recorded” adds a separate entry of the source. Not every entry of the source has a single result; some have several. The other results are left out here. The rule behind the calls is not given here. The source may hold further records. The records of an entry differ, and nothing given here explains why; dose, time, organism, isomer or construct need not be as stated for each record. A tag in brackets gives the origin of a value. The letters are not those of the source and start again with each entry. Additions like (4×) say how often a value occurs here.
System: CCRIS mutagenicity, Ames/micronucleus/aberration tests
Assay: CCRIS mutagenicity studies
[1] = Test System: AMES SALMONELLA TYPHIMURIUM, Strain/Indicator: TA100, Metabolic Activation: NONE, Method: STANDARD PLATE
[2] = Test System: AMES SALMONELLA TYPHIMURIUM, Strain/Indicator: TA100, Metabolic Activation: NONE, Method: PREINCUBATION
[3] = Test System: AMES SALMONELLA TYPHIMURIUM, Strain/Indicator: TA98, Metabolic Activation: NONE, Method: STANDARD PLATE
[4] = Test System: AMES SALMONELLA TYPHIMURIUM, Strain/Indicator: TA100, Metabolic Activation: RAT, LIVER, S-9, AROCLOR 1254, Method: STANDARD PLATE
[5] = End Point: IN VITRO CHROMOSOMAL ABERRATIONS, Test System: CHL CELLS, Metabolic Activation: NONE
[6] = Test System: AMES SALMONELLA TYPHIMURIUM, Strain/Indicator: TA100, Metabolic Activation: RAT, LIVER, S-9, AROCLOR 1254, Method: PREINCUBATION

`OB(O)O` was tested, and the mutagenic call [1] was “active; positive and inactive; negative”.

`CC[C@]1(O)CC[C@H]2[C@@H]3CCC4=CC(=O)CC[C@@H]4[C@H]3CC[C@@]21C` was tested, and the mutagenic call (Test System: UDS RAT HEPATOCYTES, Strain/Indicator: THY INCORP (16 HR), Metabolic Activation: NONE, Method: SCINTILLATION COUNTING) was “active; positive and inactive; negative”.

`CC1=CC(=O)CC(C)(C)C1` was tested, and the mutagenic call (End Point: IN VITRO CHROMOSOMAL ABERRATIONS, Test System: CHINESE HAMSTER LUNG FIBROBLAST CELLS (CHL/IU), Metabolic Activation: NONE) was “inactive; negative (2×) and active; positive (structural changes)”.

With `O=C(O)c1ccc([N+](=O)[O-])cc1` the mutagenic call (Test System: AMES SALMONELLA TYPHIMURIUM, Strain/Indicator: TA98, Metabolic Activation: NONE, Method: PREINCUBATION) was “inactive; negative [study A] and active; positive [study B] and inactive; negative [study C]”.

`CC(=O)CN(CC(C)O)N=O` (centres undefined) was tested, and the mutagenic call [2] was “inactive; negative [study A] and active; positive [study B] and active; positive [study C]”.

`CCOc1ccc(NC(C)=O)cc1N` was tested, and the mutagenic call [3] was “active; positive [10 to 10000 µg/plate] and inactive; negative [3.3 to 10000 µg/plate]”, the mutagenic call (Test System: AMES SALMONELLA TYPHIMURIUM, Strain/Indicator: TA100, Metabolic Activation: HAMSTER, LIVER, S-9, Method: STANDARD PLATE) was “inactive; negative [10 to 10000 µg/plate] and active; positive [3.3 to 10000 µg/plate]” and the mutagenic call [4] was “inactive; negative [10 to 10000 µg/plate] and active; positive [3.3 to 10000 µg/plate]”. For the same molecule, the mutagenic call (Test System: AMES SALMONELLA TYPHIMURIUM, Strain/Indicator: TA1537, Metabolic Activation: MOUSE, LIVER, S-9, Method: STANDARD PLATE) was “active; positive [10 to 10000 µg/plate] and inactive; negative [10 to 3333.3 µg/plate]”, the mutagenic call (Test System: AMES SALMONELLA TYPHIMURIUM, Strain/Indicator: TA1537, Metabolic Activation: NONE, Method: STANDARD PLATE) was “inactive; negative [10 to 10000 µg/plate] and active; positive [10 to 3333.3 µg/plate]” and the mutagenic call (Test System: AMES SALMONELLA TYPHIMURIUM, Strain/Indicator: TA1537, Metabolic Activation: RAT, LIVER, S-9, Method: STANDARD PLATE) was “active; positive [10 to 10000 µg/plate] and inactive; negative [10 to 3333.3 µg/plate]”. For the same molecule, the mutagenic call (Test System: AMES SALMONELLA TYPHIMURIUM, Strain/Indicator: TA1538, Metabolic Activation: MOUSE, LIVER, S-9, Method: STANDARD PLATE) was “active; positive and inactive; negative” and the mutagenic call (Test System: E. COLI, Strain/Indicator: WP2 UVRA, Metabolic Activation: RAT, LIVER, S-9, AROCLOR 1254, Method: STANDARD PLATE) was “inactive; negative and active; positive”.

With `Nc1cc(Cl)c(N)c(Cl)c1` the mutagenic call (End Point: IN VITRO CHROMOSOMAL ABERRATIONS, Test System: CHO CELLS, Metabolic Activation: RAT, LIVER, S-9, AROCLOR 1254) was “active; positive; weak response; also recorded: active; positive; precipitation occurred at 4000 ug/ml”.

`Cc1cc2nc3c(=O)[nH]c(=O)nc-3n(C)c2cc1C` was tested, and the mutagenic call (Test System: AMES SALMONELLA TYPHIMURIUM, Strain/Indicator: TA102, Metabolic Activation: NONE, Method: PREINCUBATION) was “inactive; negative and active; positive”.

In the case of `Cc1ccc(N=C=O)cc1N=C=O`, the mutagenic call [5] was “inactive; negative; also recorded: inactive; negative; authors report equivocal results for ploidy changes at 0.1 mg/ml”, the mutagenic call (End Point: IN VITRO CHROMOSOMAL ABERRATIONS, Test System: CHO CELLS, Metabolic Activation: NONE) was “inactive; negative; precipitation occurred at 500 and 750 ug/ml; also recorded: inactive; negative; precipitation occurred at all doses” and the mutagenic call (Test System: AMES SALMONELLA TYPHIMURIUM, Strain/Indicator: TA100, Metabolic Activation: RAT LIVER S-9, PHENOBARBITAL AND BETA-NAPHTHOFLAVONE, Method: PREINCUBATION) was “inactive; negative and active; positive”.

`C=CCNc1ccccc1.C=CCNc1ccccc1.C=CCNc1ccccc1.[Cl-].[Cl-].[Rh].[Rh]` was tested, and the mutagenic call [3] was “active; positive and inactive; negative”, the mutagenic call [1] was “active; positive and inactive; negative” and the mutagenic call (Test System: AMES SALMONELLA TYPHIMURIUM, Strain/Indicator: TA2410, Metabolic Activation: NONE, Method: STANDARD PLATE) was “active; positive and inactive; negative”.

With `C=CC(C)=O` the mutagenic call [2] was “active; positive [study A] and inactive; negative [study B]”.

With `Oc1ccc2ccccc2c1N=Nc1ccc(N=Nc2ccccc2)cc1` the mutagenic call (Test System: AMES SALMONELLA TYPHIMURIUM, Strain/Indicator: TA98, Metabolic Activation: RAT, LIVER, S-9, PCB, Method: PREINCUBATION) was “inactive; negative (2×) and active; positive” and the mutagenic call (Test System: AMES SALMONELLA TYPHIMURIUM, Strain/Indicator: TA100, Metabolic Activation: RAT, LIVER, S-9, PCB, Method: PREINCUBATION) was “inactive; negative (2×) and active; positive”.

In the case of `COC1=C(N)C(=O)c2nc(-c3nc(C(=O)O)c(C)c(-c4ccc(OC)c(OC)c4O)c3N)ccc2C1=O`, the mutagenic call (End Point: IN VITRO CHROMOSOMAL ABERRATIONS, Test System: CHE CELLS, Metabolic Activation: NONE, Method: FISH) was “active; positive (structural changes) and active; positive (dicentrics, fragments)”.

For `CC(=O)Nc1ccc2c(c1)Cc1ccccc1-2`, the mutagenic call [4] was “inactive; negative [study A] and active; positive [study B] and inactive; negative [study C]” and the mutagenic call (Test System: AMES SALMONELLA TYPHIMURIUM, Strain/Indicator: TA1537, Metabolic Activation: RAT, LIVER, S-9, AROCLOR 1254, Method: STANDARD PLATE) was “active; positive [study A] and inactive; negative [study B]”.

`C=C1[C@@H](O)[C@@H]2O[C@]3(CC[C@H](/C=C/[C@@H](C)[C@@H]4CC(C)=C[C@@]5(O[C@H](C[C@@](C)(O)C(=O)O)CCC5O)O4)O3)CC[C@H]2O[C@@H]1[C@@H](O)C[C@H](C)[C@H]1O[C@@]2(CCCCO2)CC[C@H]1C` (some centres undefined) was tested, and the mutagenic call (End Point: In vivo micronucleus, Test System: Colon epithelial cells, Species: Mouse, Strain/Sex: Swiss/Female, Route: Oral) was “active; positive; also recorded: inactive; negative, doses >/= 435 ug/kg were lethal”.

In the case of `C#C[C@]1(O)CC[C@H]2[C@@H]3CCc4cc(O)ccc4[C@H]3CC[C@@]21C`, the mutagenic call (End Point: IN VIVO CHROMOSOMAL ABERRATIONS, Test System: BONE MARROW CELLS, Species: MOUSE, Strain/Sex: SWISS ALBINO, Route: ORAL (GAVAGE)) was “active; positive (2 higher doses) and inactive; negative”.

In the case of `O=[Si]=O`, the mutagenic call (Test System: RAT ALVEOLAR CELLS, IN VIVO, Strain/Indicator: F344, MALE/HPRT/6-THIOGUANINE, Metabolic Activation: NONE, Method: INHALATION) was “active; positive and inactive; negative”.

`Nc1ccccc1N` was tested, and the mutagenic call [6] was “inactive; negative [study A] and active; positive [study B]”, the mutagenic call [4] was “inactive; negative [study A] and active; positive [study B]” and the mutagenic call (Test System: E.COLI, Strain/Indicator: WP2UVRA, Metabolic Activation: RAT LIVER S-9, PHENOBARBITAL AND BETA-NAPHTHOFLAVONE, Method: PREINCUBATION) was “inactive; negative and active; positive”.

In the case of `Nc1cc(Cl)nc(C(=O)O)c1Cl`, the mutagenic call (End Point: In vitro chromosomal aberrations, Test System: Primary rat lymphocytes, Metabolic Activation: None) was “inactive; negative; also recorded: active; positive (chromatid breaks) at doses producing a greater than or equal to 50% re”.

With `COP(N)(=O)SC` (centres undefined) the mutagenic call (End Point: In vivo chromosomal aberrations, Test System: Bone marrow cells, Species: Rat, Strain/Sex: Wistar, Route: Oral) was “active; positive and active; positive (structural changes)”.

In the case of `C=CC(=O)OCC(CC)(COC(=O)C=C)COC(=O)C=C`, the mutagenic call (Test System: AMES SALMONELLA TYPHIMURIUM, Strain/Indicator: TA1535, Metabolic Activation: RAT, LIVER, S-9, AROCLOR 1254, Method: STANDARD PLATE) was “inactive; negative [study A] and active; positive [study B] and inactive; negative [study B]”.

In the case of `Cc1ccc(S(=O)(=O)NN)cc1`, the mutagenic call [5] was “inactive; negative; also recorded: inactive; negative; authors report equivocal results for structural changes at the highest”.

For `Cc1c2ccccc2c(C)c2c1ccc1ccccc12`, the mutagenic call [3] was “active; positive [study A] and inactive; negative [study B]” and the mutagenic call [1] was “active; positive [study A] and inactive; negative [study B]”.

For `c1ccc2c3c(ccc2c1)-c1cccc2cccc-3c12`, the mutagenic call (Test System: AMES SALMONELLA TYPHIMURIUM, Strain/Indicator: TA97A, Metabolic Activation: RAT, LIVER, S-9, AROCLOR 1254, Method: PREINCUBATION) was “active; positive [study A] and inactive; negative [study B]”, the mutagenic call (Test System: AMES SALMONELLA TYPHIMURIUM, Strain/Indicator: TA98, Metabolic Activation: RAT, LIVER, S-9, AROCLOR 1254, Method: PREINCUBATION) was “active; positive [study A] and inactive; negative [study B]” and the mutagenic call [6] was “active; positive [study A] and inactive; negative [study B]”.

With `Nc1cc([N+](=O)[O-])ccc1O` the mutagenic call (Test System: AMES SALMONELLA TYPHIMURIUM, Strain/Indicator: TA100, Metabolic Activation: HAMSTER, LIVER, S-9, AROCLOR 1254 (10%), Method: PREINCUBATION) was “inactive; negative (2×) and active; positive” and the mutagenic call (Test System: AMES SALMONELLA TYPHIMURIUM, Strain/Indicator: TA100, Metabolic Activation: HAMSTER, LIVER, S-9, AROCLOR 1254, Method: PREINCUBATION) was “active; positive [33 to 1000 µg/plate] and inactive; negative [33 to 3333 µg/plate]”.

— PubChem BioAssay AID1259407 (Chemical Carcinogenesis Research Information System (CCRIS), 2018)
